Measurements taken from a collection of fitness landscapes (doi:10.1016/j.celrep.2020.107928).
Over roughly 81,000 sequences, “one-hybrid fitness for binding NBS DNA” has its median near -0.1; the highest 2% begin near 0.36. The list shows a part of the results.

B1: Caulobacter ParB omega fusion; a variant is named by its letters at X, in order, B8GW30 (parent)
chain: MESVVVGEPGMSEGRRGLGRGLSALLGEVDAAPAQAPGEQLGGSREAPIEILQRNPDQPRRTFREEDLEDLSNSIREKGVLQPILVRPSPDTAGEYQIVAGERAWRAAQRAGLKTVPIMVRELDDLAVLEIGIIENVQRADLNVLEEALSYKVLMEKFERTQENIAQTIGKSXSHVANXMRLLXLPDEVQSYLVSGELTAXHARAIAAAADPVALAKQIIEGGLSVRETEALARKAPNLSAGKSKGGRPPRVKDTDTQALESDLSSVLGLDVSIDHRGSTGTLTITYATLEQLDDLCNRLTRGI

Variants of: B1
Test: one-hybrid fitness for binding NBS DNA (the Noc-binding site; scaled: cognate 1, non-cognate 0); higher = stronger binding
Details: with NBS DNA site
In short: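 Bacterial one-hybrid selection in E. coli USO rpoZ- hisB- pyrF- with a HIS3 reporter carrying the site 19 bp from the promoter, screening Caulobacter ParB libraries with four specificity codons randomised (NNS). Cells grew 48 hours at 37°C on M9-minus-histidine plus 0.1 mM IPTG and 5 mM 3-AT. Plasmids before and after selection were Illumina-sequenced, three replicate libraries pooled, and variants under 10 reads dropped. Fitness is the log change in variant-to-wild-type read ratio, rescaled to cognate 1, non-cognate 0.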

Variant	one-hybrid fitness for binding NBS DNA
MCPG	≤ 0.2
QKDD	≤ 0.2
HFCS	≤ 0.2
GENS	≤ 0.2
VDGT	≤ 0.2
TRHY	≤ 0.2
NQYV	≤ 0.2
QARA	0.519
TSQF	≤ 0.2
VDFY	≤ 0.2
VMCR	≤ 0.2
HLYR	≤ 0.2
GEIG	≤ 0.2
SPSW	≤ 0.2
PTAT	≤ 0.2
DCPG	≤ 0.2
VPRL	≤ 0.2
AILI	≤ 0.2
MSTC	≤ 0.2
TKKA	≤ 0.2
HDNL	≤ 0.2
TSDR	≤ 0.2
LLPL	≤ 0.2
NNAT	≤ 0.2
GVMT	≤ 0.2

Variant	one-hybrid fitness for binding NBS DNA
TLAC	≤ 0.2
CRKV	≤ 0.2
RNQY	≤ 0.2
RQQM	≤ 0.2
EKHL	≤ 0.2
RWMN	≤ 0.2
WHNT	≤ 0.2
YQPE	≤ 0.2
EWIS	≤ 0.2
KQVL	≤ 0.2
FHML	≤ 0.2
TPIS	≤ 0.2
KTCR	0.212
LNPC	≤ 0.2
SHNI	≤ 0.2
PADT	≤ 0.2
GTHK	≤ 0.2
CMTS	≤ 0.2
GYNK	≤ 0.2
EWPA	≤ 0.2
AKPP	≤ 0.2
VSIC	≤ 0.2
FRDM	≤ 0.2
PPRS	≤ 0.2
DEYI	≤ 0.2

Variant	one-hybrid fitness for binding NBS DNA
WSPW	≤ 0.2
SEMC	≤ 0.2
NLHC	≤ 0.2
QKAC	≤ 0.2
RRYN	0.26
GGLS	≤ 0.2
DSRF	≤ 0.2
TPNL	≤ 0.2
TSGD	≤ 0.2
HLTR	≤ 0.2
PDSQ	≤ 0.2
HIKR	≤ 0.2
MGMD	≤ 0.2
GQNL	≤ 0.2
HYHR	≤ 0.2
PCNC	≤ 0.2
ERCG	≤ 0.2
QHKT	0.732
NHHT	≤ 0.2
NKMT	≤ 0.2
QHNM	≤ 0.2
WHFR	≤ 0.2
LAFP	≤ 0.2
SIPT	≤ 0.2
NRNG	≤ 0.2

Variant	one-hybrid fitness for binding NBS DNA
IQNR	≤ 0.2
SKYR	≤ 0.2
PNID	≤ 0.2
PVSV	≤ 0.2
GPES	≤ 0.2
QGMF	≤ 0.2
VGRY	≤ 0.2
LYKP	≤ 0.2
ADMS	≤ 0.2
CVVE	≤ 0.2
QRNR	1.03
RRLM	0.228
QEKF	≤ 0.2
CTRI	≤ 0.2
DETA	≤ 0.2
QNPP	≤ 0.2
CWHG	≤ 0.2
AISF	≤ 0.2
RGNE	≤ 0.2
QMKE	0.215
QPEL	≤ 0.2
PWPK	≤ 0.2
RDVD	≤ 0.2
